Measurements as given in a compilation of properties of binary mixtures (doi:10.1016/j.jct.2016.03.014).
The densities may have been worked out from excess volumes.

Assay: xn = mol fraction of the nth substance listed
Settings: 101.3 kPa

CC[n+]1ccn(C)c1.O=S(=O)([O-])C(F)(F)F + CCCCCO
mass density [kg/m3]
Settings	298.15 K	308.15 K	318.15 K	328.15 K
x2 = 0	1382.8	1374.4	–	1357.9
x2 = 0.0507	1365.7	1357.4	–	–
x2 = 0.108	1345.5	1337.2	1329	1320.8
x2 = 0.1716	–	1313.7	1305.5	–
x2 = 0.2365	1296.4	–	1280	1271.9
x2 = 0.3297	1256.9	1248.7	1240.6	1232.5
x2 = 0.4357	1207.4	–	1191.3	1183.2
x2 = 0.5702	1136	1128	1120	1112
x2 = 0.5941	1122.2	1114.1	1106.2	1098.2
x2 = 0.7208	1041.8	1033.9	–	–
x2 = 0.8085	–	970.5	962.7	954.8
x2 = 0.8515	944.4	936.7	928.9	921.1
x2 = 0.8998	903.9	896.3	888.6	880.8
x2 = 0.9479	860.9	853.4	–	838

CCCCCO + CC[n+]1ccn(C)c1.O=S(=O)([O-])C(F)(F)F
x1 = 1
Settings	mass density [kg/m3]
298.15 K	811.1
308.15 K	803.7
328.15 K	788.4
